# Source: the supplement of paper PMC4604168 (melanoma cell lines)
# Some of the results follow. Many values rest on one well or one pass, so single values are uncertain.
# How the values were obtained:
# Test in all cases: cell count relative to DMSO control; melanoma cells; higher = more viable cells
# Conditions in all cases: library dose: low library concentration; 72 h
# WM115 = tested on: WM115
# WM1716 = tested on: WM1716
# WM1745 = tested on: WM1745
# WM3526 = tested on: WM3526
# WM3619 = tested on: WM3619
# WM451Lu = tested on: WM451Lu
# 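Further: cell number obtained by counting DAPI-stained nuclei in high-throughput microscope images with image analysis software, screen run in 1,536-well plates.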
SMILES,cell count (WM115) [%],cell count (WM1716) [%],cell count (WM1745) [%],cell count (WM3526) [%],cell count (WM3619) [%],cell count (WM451Lu) [%]
"CCN(CC)CCNC(=O)c1c(C)[nH]c(/C=C2\C(=O)Nc3ccc(F)cc32)c1C [sunitinib] + COc1cc2c(Oc3ccc4[nH]c(C)cc4c3F)ncnc2cc1OCCCN1CCCC1 [cediranib] (first compound 0.4 µM, partner dose 0.4 µM)",89.4,119,83,94,106,81.6
"Cn1cnc2c(F)c(Nc3ccc(Br)cc3Cl)c(C(=O)NOCCO)cc21 [selumetinib] + CC(C)(C)c1cnc(CSc2cnc(NC(=O)C3CCNCC3)s2)o1 [SNS-032] (first compound 0.015 µM, partner dose 0.01 µM)",90.3,109,94.9,70.5,78.2,111
"C[C@]1(O)C[C@@H](c2nc(-c3ccc4ccc(-c5ccccc5)nc4c3)c3c(N)nccn32)C1 + CC1(C)NC(=O)N(c2ccc([N+](=O)[O-])c(C(F)(F)F)c2)C1=O [nilutamide] (first compound 0.4 µM, partner dose 1 µM)",97.9,112,84.4,110,142,79.4
"Cn1cnc2c(F)c(Nc3ccc(Br)cc3Cl)c(C(=O)NOCCO)cc21 [selumetinib] + Oc1nc(-c2ccc(C(F)(F)F)cc2)nc2c1CSCC2 [XAV939] (first compound 0.015 µM, partner dose 2 µM)",81.5,69.9,73.9,83.4,88.4,102
"CCN(CC)CCNC(=O)c1c(C)[nH]c(/C=C2\C(=O)Nc3ccc(F)cc32)c1C [sunitinib] + CN(NC(=O)CC(=O)NN(C)C(=S)c1ccccc1)C(=S)c1ccccc1 [STA4783] (first compound 0.4 µM, partner dose 0.006 µM)",76.3,97,59.2,88,121,90.7
"COc1cc([C@@H]2c3cc4c(cc3[C@@H](O[C@@H]3O[C@@H]5CO[C@@H](C)O[C@H]5[C@H](O)[C@H]3O)[C@H]3COC(=O)[C@H]23)OCO4)cc(OC)c1O [etoposide] + Nc1cccc2c1CN(C1CCC(=O)NC1=O)C2=O [lenalidomide] (first compound 0.02 µM, partner dose 1 µM)",93.4,86.7,80.9,82.8,67.2,89.4
"Cn1cnc2c(F)c(Nc3ccc(Br)cc3Cl)c(C(=O)NOCCO)cc21 [selumetinib] + CCc1ccc(CCOc2ccc(CC3SC(=O)NC3=O)cc2)nc1 [pioglitazone] (first compound 0.015 µM, partner dose 2 µM)",86.6,107,87.8,73.2,64.1,96.7
"COc1cc([C@@H]2c3cc4c(cc3[C@@H](O[C@@H]3O[C@@H]5CO[C@@H](C)O[C@H]5[C@H](O)[C@H]3O)[C@H]3COC(=O)[C@H]23)OCO4)cc(OC)c1O [etoposide] + Cn1cncc1[C@@](N)(c1ccc(Cl)cc1)c1ccc2c(c1)c(-c1cccc(Cl)c1)cc(=O)n2C [tipifarnib] (first compound 0.02 µM, partner dose 0.01 µM)",90.5,78.9,94.1,76.5,94.3,79.5
"C[C@]1(O)C[C@@H](c2nc(-c3ccc4ccc(-c5ccccc5)nc4c3)c3c(N)nccn32)C1 + O=C(O)c1ccc(-c2c[nH]c3ncc(-c4ccccc4)cc23)cc1C1CCCC1 [GSK650394] (first compound 0.4 µM, partner dose 0.16 µM)",92.8,104,90.8,86.1,113,68.2
"Cn1cnc2c(F)c(Nc3ccc(Br)cc3Cl)c(C(=O)NOCCO)cc21 [selumetinib] + O=C(CCCCCCC(=O)Nc1ccccc1)NO [vorinostat] (first compound 0.015 µM, partner dose 0.08 µM)",108,108,88.5,78.8,81.8,74.3
"CCN(CC)CCNC(=O)c1c(C)[nH]c(/C=C2\C(=O)Nc3ccc(F)cc32)c1C [sunitinib] + CC(=O)c1c(C)c2cnc(Nc3ccc(N4CCNCC4)cn3)nc2n(C2CCCC2)c1=O [palbociclib] (first compound 0.4 µM, partner dose 0.04 µM)",82.7,97.6,71.5,76.3,99.9,81.7
"CCN(CC)CCNC(=O)c1c(C)[nH]c(/C=C2\C(=O)Nc3ccc(F)cc32)c1C [sunitinib] + COc1cc(N2CCC(N3CCN(C)CC3)CC2)ccc1Nc1ncc(Cl)c(Nc2ccccc2S(=O)(=O)C(C)C)n1 [NVP-TAE684] (first compound 0.4 µM, partner dose 0.08 µM)",94,118,68.5,52,131,90.5
"Cn1cnc2c(F)c(Nc3ccc(Br)cc3Cl)c(C(=O)NOCCO)cc21 [selumetinib] + Cc1cc([N+](=O)[O-])ccc1NS(=O)(=O)c1cc(Cl)ccc1Cl [FH535] (first compound 0.015 µM, partner dose 1 µM)",76.8,107,87.5,77.1,85,85.4
"COc1cc([C@@H]2c3cc4c(cc3[C@@H](O[C@@H]3O[C@@H]5CO[C@@H](C)O[C@H]5[C@H](O)[C@H]3O)[C@H]3COC(=O)[C@H]23)OCO4)cc(OC)c1O [etoposide] + O=S(=O)(c1ccccc1)N(CC(F)(F)F)c1ccc(C(O)(C(F)(F)F)C(F)(F)F)cc1 [T0901317] (first compound 0.02 µM, partner dose 1.4 µM)",92.9,85.4,84.6,92.8,114,129
"C[C@]1(O)C[C@@H](c2nc(-c3ccc4ccc(-c5ccccc5)nc4c3)c3c(N)nccn32)C1 + O=C(Nc1cccc(Cl)c1)Nc1ncc(CCNc2ncnc3ccsc23)s1 [SNS314] (first compound 0.4 µM, partner dose 0.0008 µM)",73.5,111,75.3,96.9,96,88.6
"COc1cc([C@@H]2c3cc4c(cc3[C@@H](O[C@@H]3O[C@@H]5CO[C@@H](C)O[C@H]5[C@H](O)[C@H]3O)[C@H]3COC(=O)[C@H]23)OCO4)cc(OC)c1O [etoposide] + Cn1cc(/C=C2\C(=O)Nc3cccnc32)c2ccccc21 [GW441756] (first compound 0.02 µM, partner dose 0.4 µM)",78.8,86.5,99.9,120,89.6,97.2
"C[C@]1(O)C[C@@H](c2nc(-c3ccc4ccc(-c5ccccc5)nc4c3)c3c(N)nccn32)C1 + COc1cc(Nc2ncc(F)c(Nc3ccc4c(n3)NC(=O)C(C)(C)O4)n2)cc(OC)c1OC [Tamatinib] (first compound 0.4 µM, partner dose 0.4 µM)",87.2,93.2,48.8,59,107,89.4
"C[C@]1(O)C[C@@H](c2nc(-c3ccc4ccc(-c5ccccc5)nc4c3)c3c(N)nccn32)C1 + CN1CCN(c2ccc3nc(-c4c(N)c5c(F)cccc5[nH]c4=O)[nH]c3c2)CC1 [Dovitinib] (first compound 0.4 µM, partner dose 0.1 µM)",99,104,85.7,90.7,89,86.1
"C[C@]1(O)C[C@@H](c2nc(-c3ccc4ccc(-c5ccccc5)nc4c3)c3c(N)nccn32)C1 + C=C(c1ccc(C(=O)O)cc1)c1cc2c(cc1C)C(C)(C)CCC2(C)C [Bexarotene] (first compound 0.4 µM, partner dose 2 µM)",110,86.4,62.7,76.6,85.4,89.8
"Cn1cnc2c(F)c(Nc3ccc(Br)cc3Cl)c(C(=O)NOCCO)cc21 [selumetinib] + Cc1nc(Nc2ncc(C(=O)Nc3c(C)cccc3Cl)s2)cc(N2CCN(CCO)CC2)n1 [dasatanib] (first compound 0.015 µM, partner dose 0.004 µM)",69.9,102,79.5,73.8,70.7,81.2
"C[C@]1(O)C[C@@H](c2nc(-c3ccc4ccc(-c5ccccc5)nc4c3)c3c(N)nccn32)C1 + Cc1cc(N2CCOCC2)cc2[nH]c(-c3c(NC[C@@H](O)c4cccc(Cl)c4)cc[nH]c3=O)nc12 [BMS536924] (first compound 0.4 µM, partner dose 0.2 µM)",115,105,76.4,137,80.1,111
"C[C@]1(O)C[C@@H](c2nc(-c3ccc4ccc(-c5ccccc5)nc4c3)c3c(N)nccn32)C1 + O=C(Nc1ccccc1)c1cc([N+](=O)[O-])ccc1Cl [GW9662] (first compound 0.4 µM, partner dose 2 µM)",107,86.4,72,91.2,86.6,82.9
"COc1cc([C@@H]2c3cc4c(cc3[C@@H](O[C@@H]3O[C@@H]5CO[C@@H](C)O[C@H]5[C@H](O)[C@H]3O)[C@H]3COC(=O)[C@H]23)OCO4)cc(OC)c1O [etoposide] + O=C(CCCCCCC(=O)Nc1ccccc1)NO [vorinostat] (first compound 0.02 µM, partner dose 0.08 µM)",89.7,105,110,96.9,94.2,77.7
"Cn1cnc2c(F)c(Nc3ccc(Br)cc3Cl)c(C(=O)NOCCO)cc21 [selumetinib] + CC(C)C[C@H](NC(=O)[C@H](Cc1ccccc1)NC(=O)c1cnccn1)B(O)O [Bortezomib] (first compound 0.015 µM, partner dose 0.001 µM)",82.2,83.5,84.7,74.2,33.5,86.7
